# Laboratory results: PubChem BioAssay AID2546 (National Center for Advancing Translational Sciences (NCATS), 2010)
# The whole screen tested about 310,000 compounds, of which about 11,000 (3.5%) were called active. The shares of active, inactive and inconclusive entries below differ from those in the screen. The call rests on the fitted dose curve; in most records, active means well fitted inhibition curve with a large enough effect; inconclusive means small, poorly fitted or top-dose-only effect, or effect the other way; inactive means flat fitted curve, though single readings scatter. Potencies of inconclusive entries are left out as doubtful fits.
# Assay: VP16 counterscreen qHTS for inhibitors of ROR gamma transcriptional activity;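 further: Gal4-VP16 expression switched on by copper sulfate through the metallothionein promoter; nearly all actives have a fitted effect of over 50% in size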
# Settings: Drosophila S2 Gal4-VP16 UAS-luciferase, luminescence, 20 h; activity, negative = inhibition: at 53.6 µM (top of the series)
# On the % scale 0 is the no-effect control and ±100 the full control effect; potency means the concentration at half of the fitted maximal effect; tags describe the fitted curve by direction and shape.
Compound,Potency,"activity, negative = inhibition"
O=C(NCC1OCCc2ccccc21)c1ccc(NC(=O)c2cccc(Br)c2)cc1 (stereo not drawn),"inconclusive [inhibitor, single point]",
CCOc1ccccc1C1C(C#N)=C(N)SC(N)=C1C#N,"inconclusive [inhibitor, single point]",
C=CCn1c(C)cc(C(=O)CSc2nc3ccccc3[nH]2)c1C,active: 12.6 µM,
COCCOC(=O)c1sc(=S)n(CCOC)c1N,"inconclusive [inhibitor, single point]",
O=C(NNC(=S)Nc1ccccc1C(F)(F)F)C1CC1,inactive,
COc1cc2[nH]c(=O)n(Cc3ccccc3Cl)c(=O)c2cc1OC,inactive,
Cc1cc(Br)ccc1OCC(=O)NNC(=O)c1cnccn1,"inconclusive [inhibitor, single point]",
Cc1onc(-c2c(F)cccc2Cl)c1C(=O)NCc1ccco1,inactive,
CCOc1cc(/C=C/c2cc(C(=O)O)c3ccccc3n2)ccc1O,"inconclusive [inhibitor, partial curve]",
N#CC(C#N)=Cc1cc2ccccc2nc1N1CCOCC1,"inconclusive [inhibitor, single point]",
CCOc1ccccc1NC(=S)N1CCN(c2ccccc2F)CC1,active: 14.1 µM,
N=c1c(C(=O)NCc2ccc(F)cc2)cc2c(=O)n3ccccc3nc2n1Cc1ccco1,"inconclusive [inhibitor, partial curve, poor fit]",
Cc1[nH]n(C(N)=S)c(=O)c1N=Nc1ccc(S(=O)(=O)N2CCCCCC2)cc1,active: 2.51 µM,
CCN(CC)c1ccc(O)c(C=Nc2ccc(C)c(C)c2)c1,"inconclusive [activator, single point]",
Cc1ccc(S(=O)(=O)Nc2cc(C(C(=O)OC(C)C)C(=O)C(F)(F)F)c(O)c3ccccc23)c(C)c1 (stereo not drawn),"inconclusive [inhibitor, single point]",
O=C(Nc1ccc(S(=O)(=O)N2CCCCC2)cc1)c1ccc(CN2CCOCC2)cc1,"inconclusive [inhibitor, single point]",
O=C(CNCc1ccccc1)Nc1ccc(F)cc1,inactive,
CCNc1ncc2nc(-c3cn(C)c4ccccc34)c(=O)n(C)c2n1,inactive,
CC(=O)c1ccc2noc(-c3ccc(C)cc3)c2c1,"inconclusive [inhibitor, single point]",
Cn1cc(/C=N/NC(=O)c2ccccc2O)c2ccccc21,active: 0.891 µM,
Cc1ccc(C)c(N2CCN(C(=O)c3cc4sccc4n3C)CC2)c1,"inconclusive [inhibitor, single point]",
CC(=O)c1ccc(NC(=S)Nc2cccc(Cl)c2C)cc1,"inconclusive [inhibitor, single point]",
COc1ccc(NC(=O)c2[nH]ncc2[N+](=O)[O-])cc1,"inconclusive [inhibitor, single point]",
CC(C)(C)c1ccc(-n2ncc3c2CCCC3NC(=O)CN2CCOC2=O)cc1 (stereo not drawn),active: 12.6 µM,

Compound,Potency,"activity, negative = inhibition"
CC(C)(C)c1ccc(C(=O)NNC(=O)Cc2ccccc2)cc1,"inconclusive [inhibitor, single point]",
CCN(CC)C(=O)c1cccc(NC(=O)CC23CC4CC(CC(C4)C2)C3)c1,inactive,
COc1ccc(OC)c(NC(=S)NCc2ccc(S(N)(=O)=O)cc2)c1,inactive,
COc1ccc(CN2C(=O)c3cccc4cccc2c34)cc1F,inactive,
Cc1ccc(-c2cc(C(=O)N3CCCC3)no2)cc1,active: 7.08 µM,
O=C(NC(=S)Nc1cccc2c(O)cccc12)c1ccccc1[N+](=O)[O-],"inconclusive [inhibitor, single point]",
C/C(=N\N=C(/N)SC1CC(=O)N(c2ccc(Cl)cc2)C1=O)c1cccs1 (stereo not drawn),"inconclusive [inhibitor, single point]",
O=[N+]([O-])c1ccc(Sc2ncccn2)c([N+](=O)[O-])c1,"inconclusive [inhibitor, single point]",
COc1ccc(C2C3=C(N=C4SCC(=O)N42)c2ccccc2CC3)cc1 (stereo not drawn),"inconclusive [inhibitor, single point]",
Cc1cc(C)nc(Nc2ncc(O)n2-c2ccc(C)c(Cl)c2)n1,"inconclusive [inhibitor, single point]",
C/C(CCN1CCc2nc(-c3ccccc3)c(-c3ccccc3)cc2C1)=N\O[C@@H](C)CN1CCCCc2nc(C)c(C)cc21,,inactive: -0.871% [at 10 µM]
CCCN1C(=O)C(O)(C2CC(=O)CC(C)(C)O2)c2ccccc21 (stereo not drawn),inactive,
CCOC(=O)C1=C(COc2ccccc2)NC(=O)NC1c1ccc(Br)cc1 (stereo not drawn),inactive,
Cc1nnc2sc(-c3csc4c3CCCC4)nn12,inactive,
O=C(CCCOc1ccccc1)N1CCCc2ccccc21,"inconclusive [activator, single point]",
COc1ccc(NC(=S)Nc2ccc(OC)cc2OC)c(OC)c1,"inconclusive [inhibitor, single point]",
CNC(=S)N/N=C/c1c(C(=O)OC)cnn1-c1ccc(F)cc1F,"inconclusive [inhibitor, single point]",
Cc1ccc(OCc2nnc(SCC(=O)CC(=O)Nc3ccccc3)o2)cc1,"inconclusive [inhibitor, partial curve]",
N#C/C(=C/c1cn(CC(=O)O)c2ccccc12)C(=O)NCc1ccccc1,inactive,
Cc1cc(C)cc(OCC(=O)N/N=C/c2ccc([N+](=O)[O-])o2)c1,"inconclusive [inhibitor, single point]",
CN(C(=O)c1ccccn1)c1nnc(-c2cccnc2)s1,"inconclusive [inhibitor, single point]",
O=C(NC1CCCc2ccccc21)C1CCN(S(=O)(=O)N2CCCCCC2)CC1 (stereo not drawn),inactive,
Oc1ccccc1/C=N/NC(=S)NC1CC2CCC1C2 (stereo not drawn),active: 10 µM,
COc1ccc(NC(=O)Nc2cc(C)ccc2F)cc1OC,"inconclusive [activator, single point]",
